# Experimental data from PubChem BioAssay AID1745845 (National Center for Advancing Translational Sciences (NCATS), 2022).
# “And” between values parts separate entries of the source, which are not always exact repeats. Identical values can stand only once. About 2,600 (0.72%) of roughly 360,000 compounds were called active. The shares of active, inactive and inconclusive entries below differ from those in the screen. Calls follow the shape of the dose curve; as a rule, active = well fitted inhibition curve with a large enough effect; inconclusive = small, poorly fitted or top-dose-only effect; inactive = no such curve, though single readings can be large or run the other way. Potencies beside an inconclusive call are fits to weak or partial responses and may not hold up.
# Experiment: Primary qHTS for Inhibitors of ATXN expression; also: nearly all actives have a fitted effect of over 55% in size
# Conditions: HEK-293 ATXN2-luciferase reporter, luminescence, 24 h; activity change, negative = inhibition: at 57 µM (top of the series)
# Outline: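 ATXN2-luciferase reporter cells (luciferase flanked by upstream and downstream ATXN2 gene portions) were treated 24 h at 37 °C with compounds at up to 57 uM. SteadyGlo luminescence gave expression; GF-AFC fluorescence gave viability.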
# % is scaled to controls: 0 for no effect and ±100 for the full control effect; potency is read from the fitted curve at half-maximal effect; tags tell the direction and shape of the fitted curve.
SMILES,Potency,"activity change, negative = inhibition"
COC(=O)C1=C(c2ccc(OCc3ccccc3)cc2)C[C@@H]2CC[C@H]1N2C(=O)NC1CCN(Cc2ccccc2)CC1,active: 12.6 µM,–
COc1ccc(C(=O)c2c(C)n(CCN3CCOCC3)c3cc(I)ccc23)cc1,"inconclusive: 27.3 µM [inhibitor, single point]",–
C=CCN1CC[C@]23c4c5ccc(O)c4OC2C(O)CC[C@@]3(O)[C@H]1C5 (stereo partly drawn),–,inactive: -5.2%
COC(=O)C1=C(c2ccccc2OCc2ccccc2)C[C@@H]2CC[C@H]1N2C(=O)NCCc1ccc(F)cc1,"inconclusive: 35.5 µM [inhibitor, single point]",–
CCCCn1c(O)c(C(CC)=Nc2ccc(OC)cc2OC)c(=O)[nH]c1=O,"inconclusive: 39.8 µM [inhibitor, partial curve, poor fit]",–
COC(=O)C1=C(c2ccc(-c3ccccc3)c(F)c2)C[C@@H]2CC[C@H]1N2C(=O)NCCCOC(C)C,"inconclusive: 25.1 µM [inhibitor, partial curve]",–
CN1CCN(Cc2cc(C(C)(C)C)c(O)c(C(C)(C)C)c2)CC1,–,inactive: -5.08%
COc1ccc2c3c1OC1C(O)C=CC4[C@@H](C2)N(C)CC[C@]314 (stereo partly drawn),–,inactive: 1.09%
COc1cc2c(ccc3c4cc(OC)c(OC)cc4c[n+](C)c23)cc1O,"inconclusive: 12.6 µM [inhibitor, partial curve]",–
Clc1ccc(CCC(Cn2ccnc2)Sc2c(Cl)cccc2Cl)cc1 (stereo not drawn),"inconclusive: 20 µM [inhibitor, partial curve] and inconclusive: 27.3 µM [inhibitor, partial curve]",–
COC(=O)C1=C(C(=O)OC)C2OC1c1cc3ccccc3cc12,"inconclusive: 28.2 µM [inhibitor, single point]",–
COC(=O)C1=C(c2ccc(C(C)=O)cc2)C[C@@H]2CC[C@H]1N2C(=O)N1CCC(O)(c2ccc(Cl)cc2)CC1,"inconclusive: 39.8 µM [inhibitor, partial curve, poor fit]",–
COC(=O)C1=C(c2ccc(-c3ccccc3)c(F)c2)C[C@@H]2CC[C@H]1N2C(=O)NC1CC1,"inconclusive: 17.8 µM [inhibitor, partial curve, poor fit]",–
CCOC(=O)c1cccc(C2=C(CNC(=O)c3ccc([N+](=O)[O-])cc3)[C@H]3CC[C@@H](C2)N3Cc2ccccc2)c1,"inconclusive: 35.5 µM [inhibitor, single point]",–
Cc1c2ccncc2c(C)c2c1[nH]c1ccccc12,active: 14.1 µM,–
CC[C@@]1(O)C(=O)OCc2c1cc1n(c2=O)Cc2cc3c(NC(=O)CN)cccc3nc2-1,active: 0.336 µM,–
O=C1CN2CCOC2(c2ccccc2Cl)c2cc(Cl)ccc2N1 (stereo not drawn),–,inactive: 4.93%
COc1cccc(CNCCc2c[nH]c3ccccc23)c1,"inconclusive: 39.8 µM [inhibitor, single point]",–
CCC(=NCc1ccco1)c1c(O)n(-c2ccccc2C)c(=O)[nH]c1=O,–,inactive: -9.17%
COC12c3ccccc3-c3ccccc3C1C(C(=O)O)C2C(=O)O (stereo not drawn),–,inactive: 15.1%

SMILES,Potency,"activity change, negative = inhibition"
Cc1ccccc1N1CCN(Cc2ccc3c(c2)OCO3)CC1,"inconclusive: 23.8 µM [inhibitor, partial curve, poor fit]",–
CN(C)c1ccc(NC(=O)CN2C(=O)CN=C(c3ccccc3)c3cc(Cl)ccc32)cc1,"inconclusive: 39.8 µM [inhibitor, partial curve, poor fit]",–
CCCCn1c(=O)c(C(=O)Nc2ccccc2S(N)(=O)=O)c(O)c2ccccc21,"inconclusive: 39.8 µM [inhibitor, single point]",–
CCCCc1ccc2[nH]cc(CCN)c2c1,"inconclusive: 28.2 µM [inhibitor, partial curve]",–
COc1cccc(C(=O)C2CCCN(Cc3ccc(F)cc3)C2)c1 (stereo not drawn),–,inactive: -6.98%
C[C@@H]1O[C@@H](O[C@H]2C[C@@H](O)[C@]3(CO)[C@H]4[C@H](O)C[C@]5(C)[C@@H](C6COC(=O)C6)CC[C@]5(O)[C@@H]4CC[C@]3(O)C2)[C@H](O)[C@H](O)[C@H]1O (stereo partly drawn),active: 0.562 µM,–
O=[N+]([O-])c1cccc(NP(=O)(N2CC2)N2CC2)c1,"inconclusive: 25.1 µM [inhibitor, partial curve, poor fit]",–
CC(C)[C@H]1C(=O)O[C@H](C(C)C)C(=O)N(C)[C@@H](C(C)C)C(=O)O[C@H](C(C)C)C(=O)N(C)[C@@H](C(C)C)C(=O)O[C@H](C(C)C)C(=O)N1C,active: 7.94 µM,–
CC(=O)OC(C)(C)/C=C/C(=O)C(C)(O)C1C(O)CC2(C)C3CC=C4C(CC(O)C(=O)C4(C)C)C3(C)C(=O)CC12C (stereo not drawn),"inconclusive: 29.9 µM [inhibitor, partial curve, poor fit]",–
CN(C)c1ccc(/C=C/c2cc[n+](C)c3ccccc23)cc1,"inconclusive: 12.6 µM [inhibitor, partial curve] and inconclusive: 2.67 µM [inhibitor, full curve, poor fit]",–
O=c1[nH]c2ccccc2n1CCCN1CCC(n2c(=O)[nH]c3cc(Cl)ccc32)CC1,"inconclusive: 35.5 µM [inhibitor, partial curve]",–
CC(=O)OC1CCC2(C)C(CCC3C4CC(N5CC5)C(C(C)=O)C4(C)CC(=O)C32)C1 (stereo not drawn),"inconclusive: 28.2 µM [inhibitor, partial curve, poor fit]",–
Cc1ccc(NC(=O)CN2C(=O)CN=C(c3ccccc3)c3cc(Cl)ccc32)cc1,"inconclusive: 39.8 µM [inhibitor, single point]",–
CN1C2CCC1/C(=C/c1ccccn1)C(=O)/C2=C\c1ccccn1,"inconclusive: 5.97 µM [inhibitor, full curve, poor fit]",–
COC(=O)C1=C(c2ccc(OC(F)(F)F)cc2)C[C@@H]2CC[C@H]1N2C(=O)N1CCCC1,"inconclusive: 10 µM [inhibitor, partial curve, poor fit]",–
CN(C)P(=O)(C(Cl)=C(N1CCCCC1)N1CCCCC1)N(C)C,"inconclusive: 39.8 µM [inhibitor, single point]",–
O=C1NC(=O)N(c2ccccc2)C(=O)/C1=C\C=C\c1ccccc1,active: 14.1 µM,–
COc1ccc(-n2nnnc2C(c2cccc3ccccc23)N2CCC(n3c(=O)[nH]c4ccccc43)CC2)cc1 (stereo not drawn),"inconclusive: 28.2 µM [inhibitor, single point]",–
Cc1ccc(-n2c(O)c(C=NCCC3=CCCCC3)c(=O)[nH]c2=O)cc1,–,inconclusive: -47% [inhibitor]
C[C@@H]1[C@@H](C(=O)C[C@H]2O[C@@H]3O[C@]4(C)CC[C@@H]5[C@H](C)CC[C@@H]([C@H]2C)[C@@]35OO4)O[C@@H]2O[C@]3(C)CC[C@H]4[C@H](C)CC[C@@H]1[C@@]24OO3,"inconclusive: 1.09 µM [inhibitor, full curve]",–

SMILES,Potency,"activity change, negative = inhibition"
COC(=O)C(O)(c1ccc(NC(=S)NC(=O)c2ccc(Cl)cc2Cl)c(C)c1)C(F)(F)F (stereo not drawn),"inconclusive: 42.3 µM [inhibitor, partial curve, poor fit]",–
COc1ccc(N2C(=O)/C(=C/c3cccs3)C(=O)NC2=S)cc1,"inconclusive: 25.1 µM [inhibitor, single point]",–
CNC1(c2ccccc2Cl)CCCCC1=O (stereo not drawn),–,inactive: -6.38%
c1ccc2sc(N3CCNCC3)nc2c1,"inconclusive: 29.9 µM [inhibitor, single point]",–
NC(Cc1ccc(Cl)cc1)c1csc(Nc2ncccn2)n1 (stereo not drawn),"inconclusive: 12.6 µM [inhibitor, partial curve]",–
C=C1C(=O)O[C@@H]2C[C@@H](C)[C@@H]3C4OC4C(=O)[C@@]3(C)[C@@H](O)[C@H]12 (stereo partly drawn),active: 3.16 µM,–
COC(=O)C1=C(c2ccccc2OCc2ccccc2)C[C@@H]2CC[C@H]1N2C(=O)NCc1cccc(C(F)(F)F)c1,–,inactive: -20.7%
CC(=O)OC(C)(C)/C=C/C(=O)[C@](C)(O)[C@H]1[C@H](O)C[C@@]2(C)[C@@H]3CC=C4[C@H](C[C@H](O)C(=O)C4(C)C)[C@]3(C)C(=O)C[C@]12C,active: 14.1 µM,–
CCOc1cc2c(cc1OCC)-n1cccc1C(c1ccc(OC(F)F)cc1)NC2 (stereo not drawn),"inconclusive: 31.6 µM [inhibitor, single point]",–
CCOC(=O)Cn1cc([N+](=O)[O-])nc1[N+](=O)[O-],–,inactive: 7.56%
O=Cc1cn(Cc2ccc([N+](=O)[O-])cc2)c2ccccc12,"inconclusive: 6.31 µM [inhibitor, partial curve]",–
COc1ccc(-n2nnnc2C(c2ccnc3ccccc23)N2CCC3(CC2)C(=O)NCN3c2ccccc2)cc1 (stereo not drawn),"inconclusive: 28.2 µM [inhibitor, single point]",–
COC(=O)C1=C(c2ccc(OC(F)(F)F)cc2)C[C@@H]2CC[C@H]1N2C(=O)N1CCC(C)CC1,"inconclusive: 22.4 µM [inhibitor, single point]",–
COc1cccc(C2CC3C(=O)C=CC2N3Cc2ccccc2)c1 (stereo not drawn),"inconclusive: 31.6 µM [inhibitor, single point]",–
CC(C)CNC(=O)c1c(N)n(Cc2ccc3c(c2)OCO3)c2nc3ccccc3nc12,"inconclusive: 39.8 µM [inhibitor, single point]",–
CN1C(=O)C(=Cc2ccccc2OCc2ccccc2Cl)C(=O)N(C)C1=O,"inconclusive: 0.0752 µM [inhibitor, full curve, poor fit]",–
CCCCCN1C(=O)c2ccccc2[C@@]2(C(=O)OCC)Cc3cc(Cl)ccc3[C@@H]12,"inconclusive: 28.2 µM [inhibitor, single point]",–
O=C1CN=C(c2ccc(Br)cc2)c2oc3ccccc3c2N1,"inconclusive: 17.8 µM [inhibitor, single point]",–
